Source: the supplement of paper PMC3334620
Over roughly 33,000 sequences, “E-score (-0.5 to 0.5)” has its median near -0.043; the highest 2% begin near 0.37. The list shows a part of the results.

Target: T1, Upc2 (UniProt Q12151)
T1 sequence: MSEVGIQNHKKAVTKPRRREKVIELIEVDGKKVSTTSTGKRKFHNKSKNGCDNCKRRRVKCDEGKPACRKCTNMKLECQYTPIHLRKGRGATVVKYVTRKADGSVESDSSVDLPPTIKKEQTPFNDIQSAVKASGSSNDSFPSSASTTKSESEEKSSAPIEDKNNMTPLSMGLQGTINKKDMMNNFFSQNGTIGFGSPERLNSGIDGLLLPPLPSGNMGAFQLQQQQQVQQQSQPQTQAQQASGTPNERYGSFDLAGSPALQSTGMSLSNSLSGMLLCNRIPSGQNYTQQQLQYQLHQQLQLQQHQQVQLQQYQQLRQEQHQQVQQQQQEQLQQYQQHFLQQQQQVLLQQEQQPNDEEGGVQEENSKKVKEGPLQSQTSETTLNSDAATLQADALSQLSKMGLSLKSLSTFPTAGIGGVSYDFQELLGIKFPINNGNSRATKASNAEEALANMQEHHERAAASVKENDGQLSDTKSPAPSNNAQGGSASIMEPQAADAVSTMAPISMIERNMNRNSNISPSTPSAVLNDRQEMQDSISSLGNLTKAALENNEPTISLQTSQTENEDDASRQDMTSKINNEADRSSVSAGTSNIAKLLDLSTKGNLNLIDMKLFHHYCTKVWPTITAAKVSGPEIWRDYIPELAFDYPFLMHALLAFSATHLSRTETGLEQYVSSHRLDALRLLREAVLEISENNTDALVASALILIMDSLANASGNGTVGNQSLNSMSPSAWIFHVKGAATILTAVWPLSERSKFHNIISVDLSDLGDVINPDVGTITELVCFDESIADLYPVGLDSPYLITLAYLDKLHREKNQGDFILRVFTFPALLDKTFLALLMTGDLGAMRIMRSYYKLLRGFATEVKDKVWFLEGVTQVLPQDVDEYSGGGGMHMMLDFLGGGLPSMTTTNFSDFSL
Test: PBM E-score (8-mer binding enrichment) (E-score (-0.5 to 0.5)); higher = stronger / more preferred TF binding; most listed sequences are background and not binding sites
Conditions: protein concentration: 200 nM; construct: GST-full length
Outline: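 Each ungapped eight-base word and its reverse complement, pooled, received an E-score from the Universal PBM Analysis Suite. Underlying scans, normalised with masliner, recorded fluorescent anti-GST bound to GST-tagged yeast transcription factors. These were applied at about 100-200 nM to universal all-10-mer Agilent arrays double-stranded by primer extension.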

| Sequence | PBM E-score |
| --- | --- |
| TATGTAGA | -0.216 |
| GCACGCAA | 0.0246 |
| CGCCTAGC | -0.225 |
| CGCCTACA | -0.122 |
| AGTAACAA | -0.0794 |
| CTACAGAG | -0.0762 |
| GGAATATA | 0.0466 |
| ATGGTGGC | -0.417 |
| GGAACGGA | 0.312 |
| AAAAGTGA | -0.0937 |
| GAGTCATA | -0.0122 |
| ATATTTAC | 0.216 |
| GTGATTCA | -0.264 |
| CGGCGGGC | -0.0751 |
| GGTAGTTA | -0.14 |
| ACGCTGGG | -0.275 |
| AGGCAAGG | -0.212 |
| CGGCAGGC | 0.0144 |
| ACATATAC | 0.227 |
| ACTGGGAT | -0.0814 |
| ATGGACGG | -0.0867 |
| CGTACGAC | 0.449 |

| Sequence | PBM E-score |
| --- | --- |
| CAGATCAC | -0.266 |
| GGAGTCGA | -0.151 |
| CGTAATTA | 0.205 |
| CGATGGAG | 0.0869 |
| CATCAAAG | -0.286 |
| AAACCTTA | 0.144 |
| AAACTATA | 0.093 |
| ACTACGTG | -0.11 |
| CAGTCCGC | -0.225 |
| CACCGTGG | -0.191 |
| AGCTAAAG | -0.0646 |
| GGCTGCGA | -0.00438 |
| CCGCTGCC | -0.111 |
| CAAATACC | -0.0941 |
| ATGCGAGA | 0.246 |
| ACGACGCC | 0.306 |
| ATTTTACA | 0.0754 |
| CTCCCCTA | -0.122 |
| CGCTTGCA | 0.0574 |
| CGCCGCAG | -0.242 |
| TAGCCTCA | -0.164 |
| CTCAATCC | -0.0558 |

| Sequence | PBM E-score |
| --- | --- |
| GGCGACTA | -0.142 |
| ACGCCAGC | -0.0365 |
| TCCCGACA | -0.0207 |
| AGACTTCA | -0.0888 |
| AATAAGAA | 0.0214 |
| AAAGAATA | 0.091 |
| GTCCTCTA | -0.184 |
| ATGGGCCC | -0.0858 |
| CAACGGAC | -0.127 |
| CTTCGTGC | -0.0549 |
| AGGGCGTC | -0.0669 |
| CAAGGTCG | -0.186 |
| AAGAGTCT | -0.0506 |
| CGAGTTAA | 0.171 |
| CACTGAAG | -0.209 |
| CGGGCCTC | -0.0711 |
| AATTGGTA | 0.0555 |
| CCATTAGC | 0.00735 |
| CGATTCAG | 0.0397 |
| GCTGTCTA | -0.0899 |
| TACCACAA | 0.0329 |
| AGCAGGCA | -0.246 |

| Sequence | PBM E-score |
| --- | --- |
| AGTCGATC | -0.0192 |
| TCCTAACA | 0.02 |
| AAAACACC | -0.187 |
| ACGACAAA | 0.367 |
| CTTCAGCC | -0.234 |
| ACGTAGCG | 0.224 |
| ATGGAGTG | -0.272 |
| ACTATCAT | 0.0324 |
| AAGTGAAG | -0.122 |
| AAACGGCT | 0.296 |
| CGTGCCTA | -0.229 |
| CTCAGGCC | -0.202 |
| ATCCCCCC | -0.331 |
| ACCGCAAC | 0.086 |
| CGTATATC | 0.454 |
| CGCCAGGC | -0.0622 |
| CTTTTCCA | -0.318 |
| AGTACTCG | 0.242 |
| ACTCCGCT | -0.102 |
| AGGTTAGA | -0.168 |
